Measured values reported in ChEMBL document CHEMBL4888484, “Replenishing the malaria drug discovery pipeline: Screening and hit evaluation of the MMV Hit Generation Library 1 (HGL1) against asexual blood stage Plasmodium falciparum ,using a nano luciferase reporter read-out” (2022).
The whole screen tested about 150,000 compounds, of which about 540 (0.36%) showed an effect of 50% or more. The list shows a part of the results.

These molecules were tested on Plasmodium falciparum (assay: Primary screen in NF54 nanoGlo assay, in single point, at 2uM, 72h; a lower Z score goes with more inhibition). Settings: timepoint 72 hour.
Assay type: functional, Erythrocyte

SMILES	% Inhibition [%]	Z score
CC[C@H](C)N(Cc1ccncc1)C(=O)CNC(=O)c1ccccc1	3	-0.39
CCCCC(N)C(=O)NC(C)c1cccnc1 (centres undefined)	12	-1.39
O=C(c1cccc(F)c1)N1CCC[C@@]2(C1)Nc1ccccc1N=C2NC1CCCC1	29	-3.33
Cc1ccc(CNCc2ccc(N3CCNC(=O)C3)cc2)cc1C	-12	1.6
C[C@@H]1CC[C@H](C(=O)O)[C@H](C)N1Cc1cc(-c2ccc(Cl)cc2)no1	-12	1.58
Cc1cnc2c(cnn2CC(=O)N2CCC(O)(C3CCC3)CC2)c1	0	-0.04
Cc1ccccc1C(=O)N1C(=O)N(c2ccc(Cl)cc2)C2(C)CC1c1ccccc1O2 (centres undefined)	-2	0.18
NS(=O)(=O)N1CCn2c(cc3ccc(Cl)cc32)C1	-3	0.57
Cc1nn(C)c(C)c1C(=O)Nc1ccc(-n2ncc3ccccc32)cc1	-12	1.67
O=C1CC[C@H](C(=O)Nc2cccnc2)CN1	-3	0.43
c1ccc2c(-c3nccn3CCn3ccnc3)cccc2c1	-13	1.82
C[C@H](CO)N(C)c1cc(-c2ccccc2)nc2ncnn12	-8	1.19
C=CCNC(=O)N1C[C@@H]2Oc3ccccc3S(=O)(=O)NC[C@H](O)CN(C)[C@@H]2C1	13	-2.04
O=C(NCCn1nc(C2CC2)ccc1=O)c1cscn1	11	-1.39
O=C(NCC[C@H]1CCC(F)(F)C1)c1cncc(N2CCCC2=O)c1	-15	1.6
CC1(CO)CCCC1Nc1ncc(Br)cn1 (centres undefined)	-13	1.31
COc1ccc(CCNC(=O)CCc2c(C)[nH]c(=O)n(C)c2=O)cc1OC	0	0.01
CC(C)(C)OC(=O)Nc1cc(NC(=O)CC#N)c(F)c(F)c1F	10	-1.43
O=C(NC1(C(F)(F)F)CC1)[C@@H]1CN(S(=O)(=O)c2ccccc2Cl)CCO1	-12	2.3
CC(NCc1ccc(S(=O)(=O)CCO)cc1)[C@H]1COC(C)(C)O1 (some centres undefined)	21	-2.64
c1ccc(C2=N[C@@H](c3ccccc3)[C@@H](c3ccccc3)N2)cc1	3	-0.39
O=C(CC1(C(=O)O)Cc2ccccc2C1)N1CCc2sccc2C1	-11	1.01

SMILES	% Inhibition [%]	Z score
Cc1ccc2c(c1)[C@H]1OCC[C@H]1C(c1ccncc1)N2 (some centres undefined)	-7	1.2
N#Cc1cn(Cc2ccc(OC[C@H]3CCCO3)cc2)c(=O)[nH]c1=O	8	-1.56
CC(C)NC(=O)CNC1CCC2(CC1)C[C@@H]2NC(=O)OC(C)(C)C (some centres undefined)	-3	0.51
O=C(NCCn1cc(-c2ccncc2)cn1)c1cccs1	13	-1.64
Clc1ccc(-n2cccc2CN2CCCn3cncc3C2)nc1	-10	1.87
CCN1C[C@H](CN(C)Cc2nc(C3CC3)no2)Oc2ccccc21	-6	0.71
Cc1nc(C2=C(O)CN(CCc3ccccc3)C2=N)sc1C	-12	1.91
CC(C)(C)OC1CC(NC(=O)CCc2ccccn2)C1n1cccn1 (centres undefined)	-27	2.9
CCOc1ncccc1CNC(=O)[C@@H]1CCCN1C(C)=O	3	-0.58
CCOC(=O)CC1(NC(=O)N2CCN(c3nc4ccccc4n3C)CC2)CCCCC1	6	-1
CN1CCCC[C@@H](C(=O)NCCc2ccccn2)C1=O	-10	1.4
Cc1ccc(C(=O)NC[C@@H]2CN(C)C(=O)[C@H](C)N2Cc2cccc(C)c2)nc1	-10	1.44
COc1ccc(S(=O)(=O)N2CCC(N3CCN(c4ccccc4OC)CC3)CC2)cc1	0	-0.07
Cc1cn2c(n1)CN(C(=O)c1cnn(CC(C)C)c1C(F)F)CC2	-1	0.11
CN(CCc1ncccn1)C(=O)OCC1CCCCC1	-13	2.66
CC(C)Cc1nc(CN2c3ccccc3C(C(N)=O)CC2C)no1 (centres undefined)	-14	1.89
CN(C)[C@@H](CNc1oc(C(C)(C)C)nc1C#N)c1ccco1	4	-0.51
CN1CCN(Cc2cccc3ncccc23)C[C@H]1c1ccccc1	-7	1.15
COc1ccc(CCCN(C)CC(=O)Nc2cc(C)no2)cc1	-10	1.23
CC(C)c1noc(Cn2ccnc2-c2ccccc2-c2ccco2)n1	-2	0.19
CCc1noc(C)c1C(=O)NC(C)C1CCCO1 (centres undefined)	6	-1.27
CCC1CCCCC1OCC(=O)NS(C)(=O)=O (centres undefined)	4	-0.5

SMILES	% Inhibition [%]	Z score
N#Cc1nccnc1NCCCNc1nccnc1C#N	-3	0.38
CCc1c(C)sc2c1CCN(C(=O)Nc1ccc(C)c(F)c1)[C@@H]2c1ccccc1	-13	1.27
COCc1nn2c(c1-c1ccccc1)NC(=O)[C@@H](CC(=O)OC)C2	20	-2.49
O=C(c1ccncc1)N1CC[C@H](OCCCc2ccccc2)C1	14	-2.04
O=S(=O)(C1CC1)N1CC[C@H](c2ncon2)C1	6	-1.07
CCN(CC)Cc1cc(-c2nc(C)nn2-c2ccccn2)c(C)o1	0	0.05
CCOc1ncccc1CNc1nnc(C2CC2)o1	-7	0.86
CNc1cc(C(=O)N(C)[C@@H](C)c2ccon2)ccn1	-7	1.06
Cc1nc(C)c(C(=O)N2CCN(C)[C@@]3(CCNC(=O)CC3)C2)s1	-15	2.02
N#Cc1nccn1CC(=O)[C@H]1CCCOC1	12	-1.57
COC(=O)C1(NCCNC(=O)c2cnsn2)CCC1	-6	1.24
CC[C@@H](CCO)CNS(=O)(=O)N1CCC(C(C)(C)C)CC1	-12	1.67
O=C(NCc1cc2c(cc1OC(F)F)OCO2)c1ccc(F)cn1	-4	0.35
Cc1cc2cccc(NC(=O)N3CCC(F)(F)CC3)c2o1	-9	1.75
CC(C)COc1cc(=O)n2c(c1C(=O)N(C)CCc1ccccn1)CCCCC2	-2	0.32
Cc1cnc2sc(C(=O)Nc3ccccc3)c(C(=O)O)n2c1=O	-3	0.61
O=C(Nc1ccc2c(c1)OCO2)c1nnc(C(=O)N2CCC[C@H](C(=O)N3CCCCC3)C2)s1	-32	2.8
Cc1nnc(N2C[C@@H](C(F)(F)F)OC(C)(C)C2)c(C#N)c1C	-15	1.91
C[C@H](O)C1(NC(=O)c2ccnc3cc(Cl)ccc23)CC1	-5	0.58
COc1ccc(CN2C[C@H](COc3ccncc3)C3(CCOCC3)C2)cc1C	-5	0.67
CN(Cc1ncc[nH]1)C(=O)c1cncc(Cl)c1	-9	1.02
COCCOC(C)C(=O)N1CCC2OCCCC2C1 (centres undefined)	-3	0.29

SMILES	% Inhibition [%]	Z score
COc1ccccc1CN1Cc2ccccc2O[C@@H](C)C1=O	-5	0.61
CC(=O)Nc1cccc(NC(=O)c2cccc(N(C)S(C)(=O)=O)c2C)c1	0	0.04
Cc1cnc(NC2CC3CCC2O3)nc1NC1CC2CCC1O2 (centres undefined)	7	-1.32
O=C(NC1CNCCC1c1ccc(F)c(F)c1)c1ccc2c(c1)OCO2 (centres undefined)	-11	1.41
C/C=C/CN(C(=O)CCCN1CCCCC1=O)[C@@H](C)CC	-3	0.61
O=C(NCCC(c1ccccc1)c1ccccc1)[C@@H]1COCCN1	-7	1.32
O=C(NCCn1c(=O)n(Cc2ccc(F)cc2)c2cccnc21)C1CCC1	12	-1.36
Cc1cccc2c(C(=O)NC3CCN(c4nnnn4C)CC3)coc12	-7	1
CC[C@@H](CC#N)NC(=O)c1ncc(Br)cc1O	6	-0.75
Cc1ccc(Br)cc1NC(=O)N[C@H]1CCN(C2CC2)C1	-8	1.11
C[C@@H](c1nc(C2CC2)no1)N1CC(=O)N(C2CC2)C1	-13	1.17
O=C(O)c1cccc2c(-c3ccccc3)c(-c3ccccc3)[nH]c12	-1	0.21
CCc1cc2c3c([nH]c2cc1S(=O)(=O)Nc1ccc(C)cc1Cl)CCCC3=O	-14	2.66
COCCN(Cc1ccc(C)o1)c1ncc(Cl)cn1	-8	0.84
CC(C)n1ccc(CC(=O)N2CCC[C@H](c3ccnn3C)C2)n1	1	-0.12
CCNC(=O)c1ccc(-c2ccc(=O)[nH]c2)cc1	-8	1.09
c1cc(-c2cc(N3C[C@H]4CCC[C@@H]3C4)n3nccc3n2)ccn1	-10	1.34
CCN1CCN(C(=O)C2CCN(S(=O)(=O)c3cc(-c4noc(C5CCC5)n4)sc3C)CC2)CC1	-18	1.6
COc1c(N)ncnc1N1CC[C@H](C2CCOCC2)C1	-14	2.76
COC[C@@]12CCN(C(=O)Cc3ccccc3F)C[C@@H]1CN(S(C)(=O)=O)C2	-15	1.81
CC(C)C[C@H](NC(=O)Nc1ccn(C)n1)C(=O)OC(C)C	0	0.02
